# Screen size: about 310,000 compounds; about 2,200 (0.71%) showed an effect of 50% or more. Effects have a minus sign here. The list shows a part of the results.
# Target: human ether-à-go-go-related gene (hERG) potassium channel (human, UniProt Q12809)
# Assay: primary screen, population patch clamp on CHO cells stably expressing hERG
# Chain of human ether-à-go-go-related gene (hERG) potassium channel (Q12809 whole entry, looked up): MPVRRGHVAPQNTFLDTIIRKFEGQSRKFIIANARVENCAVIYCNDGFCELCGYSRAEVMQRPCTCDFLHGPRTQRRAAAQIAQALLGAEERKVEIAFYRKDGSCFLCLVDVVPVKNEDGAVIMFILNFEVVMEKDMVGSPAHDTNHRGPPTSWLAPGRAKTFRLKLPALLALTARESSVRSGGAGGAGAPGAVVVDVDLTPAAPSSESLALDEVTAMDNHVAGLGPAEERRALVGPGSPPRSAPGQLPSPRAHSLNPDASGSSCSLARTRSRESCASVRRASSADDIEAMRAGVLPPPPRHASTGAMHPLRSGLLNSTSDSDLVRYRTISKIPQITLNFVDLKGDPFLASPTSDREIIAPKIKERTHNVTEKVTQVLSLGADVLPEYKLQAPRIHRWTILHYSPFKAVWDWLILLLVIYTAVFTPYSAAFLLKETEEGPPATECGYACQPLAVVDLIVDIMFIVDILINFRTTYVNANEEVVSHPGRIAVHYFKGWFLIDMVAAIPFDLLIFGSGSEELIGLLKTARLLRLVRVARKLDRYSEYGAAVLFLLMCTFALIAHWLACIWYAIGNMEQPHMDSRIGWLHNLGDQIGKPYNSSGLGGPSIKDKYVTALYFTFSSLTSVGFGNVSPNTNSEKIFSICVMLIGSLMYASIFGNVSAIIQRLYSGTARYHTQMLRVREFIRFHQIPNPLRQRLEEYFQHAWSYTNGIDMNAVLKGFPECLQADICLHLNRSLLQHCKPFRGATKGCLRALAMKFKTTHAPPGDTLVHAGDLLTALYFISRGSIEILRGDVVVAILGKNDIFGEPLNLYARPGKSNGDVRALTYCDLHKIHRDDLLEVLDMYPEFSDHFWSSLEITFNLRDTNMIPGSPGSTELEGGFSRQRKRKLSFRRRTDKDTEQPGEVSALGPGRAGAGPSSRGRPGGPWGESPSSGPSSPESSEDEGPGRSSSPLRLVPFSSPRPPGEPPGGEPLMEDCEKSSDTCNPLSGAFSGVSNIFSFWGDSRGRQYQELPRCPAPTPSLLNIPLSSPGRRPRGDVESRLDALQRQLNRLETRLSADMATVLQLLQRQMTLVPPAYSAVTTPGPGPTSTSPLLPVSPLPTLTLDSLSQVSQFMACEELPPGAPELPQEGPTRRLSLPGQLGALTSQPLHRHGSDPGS
row,Structure (SMILES),"hERG current change (%, negative = inhibition) at 1uM"
1,O=C(c1cccc(S(=O)(=O)N2CCc3ccccc32)c1)N1CCc2ccccc2C1,-4.56%
2,CCc1ccc(N2CC(C(=O)Nc3cc(C)on3)CC2=O)cc1 (stereo not shown),-1.36%
3,COC(=O)c1cc(-c2ccc(OC)cc2)n[nH]1,5.3%
4,COc1ccc(-c2csc3nc(-c4ccccc4F)oc(=O)c23)cc1OC,-3.84%
5,C/C(=N\Nc1nc(C)cc(C)n1)c1ccc(N2CCOCC2)cc1,3.89%
6,CCn1c2ccccc2c2cc(NC(=O)CSc3nnc(-c4ccccc4OC)n3N)ccc21,5.65%
7,Cc1cc(=O)n(Cc2ccc(OC(C)C)cc2)c(=S)[nH]1,6.81%
8,O=C(CN1CCc2cc3c(cc2C1)OCCCO3)Nc1cccc([N+](=O)[O-])c1,3.58%
9,FC(F)(F)C(F)(F)C(F)(F)c1nnc2ccc(N3CCOCC3)nn12,6.45%
10,O=C(Nc1nc2c(s1)CN(Cc1ccccc1)CC2)C1CCCC1,3.35%
11,C=C(C)COc1ccc(-c2ncncc2-c2ccccc2OC)c(O)c1,10.2%
12,Cc1csc(CNc2ncnc3ccc(-c4ccc5c(c4)OCCO5)cc23)c1,13.1%
13,O=c1[nH]c(=O)n(Cc2ccc(F)cc2)c(O)c1/C=N/Nc1ccccc1,11.2%
14,CCOC(=O)/C(C#N)=C/c1ccc(N2CCCCC2)cc1,2.88%
15,CCNc1ccc(P(=S)(N(C)C)N(C)C)cc1,9.35%
16,CCOC(=O)C1CCCN(C(=O)c2cc(=O)c3ccccc3o2)C1 (stereo not shown),11.1%
17,O=C(NC1(N2CCOCC2)CC1)c1ccc(Cl)cc1,9.48%
18,CC(C)NC(=O)CCc1nnc(Cc2cccc(C(F)(F)F)c2)o1,-1.28%
19,CC(C)(C)c1ccc(CS(=O)CC(O)CO)cc1 (stereo not shown),14.2%
20,CS(=O)(=O)N(CC(=O)Nc1cc(Cl)ccc1Cl)c1ccccc1,-5.45%
21,CCOC(=O)c1ccc(NC(=O)C2(c3ccccc3)CCCC2)cc1,-20.6%
22,CCOCCCNC(=O)c1ccc(CS(=O)(=O)Cc2ccc(C)cc2)o1,5.38%
23,C/C(=N\NC(=O)COc1ccc(C(C)(C)C)cc1)c1cc2ccccc2o1,0.79%

row,Structure (SMILES),"hERG current change (%, negative = inhibition) at 1uM"
1,CCn1c(NC(=O)c2ccccc2F)c(-c2cccs2)c(=O)c2ccccc21,4.56%
2,CCOC(=O)C1=C(N)OC2=C(C(=O)CC(C)C2)C1c1cccnc1 (stereo not shown),16.2%
3,Cc1ccccc1NC(=O)Cn1cnc2c1c(=O)n(C)c(=O)n2C,9.32%
4,COCCN(C(=O)CSc1nnc(C)n1-c1ccc(C)cc1)c1c(N)n(Cc2ccccc2)c(=O)[nH]c1=O,9.76%
5,COc1cccc(-n2c(O)c(C=NCCN3CCNCC3)c(=O)[nH]c2=S)c1,7.28%
6,Cc1nc2c(C)cccn2c(=O)c1NC(=O)c1cccc2ccccc12,12.1%
7,O=C(NCc1ccco1)C(c1ccccc1)N(C(=O)Cc1cccs1)c1ccccc1 (stereo not shown),16.4%
8,O=P(O)(CCc1ccncc1)CN1CCCCC1,21.2%
9,Cc1oc2c(C)c3oc(=O)c(CCC(=O)O)c(C)c3cc2c1-c1ccccc1,14.2%
10,CN1C(=O)N(c2nnc(C(C)(C)C)s2)C(=O)C1c1ccccc1 (stereo not shown),14.2%
11,Cc1nc(CN2CCCCC2)cc(=O)[nH]1,13.7%
12,C/C(=C\c1ccccc1)C(=O)NC1CCSC1=O (stereo not shown),-4.25%
13,CCO[C@@H]1OC(C(N)=O)=C[C@H](c2coc3ccccc3c2=O)[C@H]1CCCO,7.09%
14,Cc1occc1C(=O)NNC(=S)Nc1cccc([N+](=O)[O-])c1,4.55%
15,Cc1ccc(C(=O)N2CCN(c3ccccc3)CC2)cc1NC(=O)c1ccco1,1.43%
16,C=CCC1C(=O)NC(=S)NC1=O,10.8%
17,O=S(=O)(Cc1ccccc1)N1CCn2c(nc3ccccc32)C1,11.2%
18,CC(C)(C)c1ccc(C(=O)NCC(=O)NNC(=O)c2ccccc2O)cc1,16.7%
19,CCOC(=O)CC1COCCN1C(=O)c1cc(COc2ccc(F)c(F)c2)on1 (stereo not shown),-9.67%
20,N=C1/C(=C\c2ccc(SCc3ccco3)o2)C(=O)N=C2SC=NN12,17.3%
21,Cc1cc(OCC(=O)N2CCCN(C)CC2)ccc1Cl,13.6%
22,Nc1nc(-c2ccccn2)nc(N)c1Cc1c(F)cccc1Cl,4.23%
23,CCC(Sc1ncccc1C(=O)OC(C)C)C(=O)N1CCOCC1 (stereo not shown),11.5%

row,Structure (SMILES),"hERG current change (%, negative = inhibition) at 1uM"
1,Cc1ccc(C(=O)Nc2nc3n(n2)C(c2ccccc2)CC(=O)N3)cc1 (stereo not shown),10.2%
2,COc1ccc(Cl)cc1NC(=O)CCN1C(=O)C2CC=CCC2C1=O (stereo not shown),10.9%
3,CCO[C@H]1OC(C(=O)N2CCN(C)CC2)=C[C@@H](C(C)(C)C)[C@@H]1CCCO,3.29%
4,CCCn1nnnc1NCc1ccccc1F,11.7%
5,CCCNc1c(N)c(=O)c1=O,8.98%
6,COc1cc(NC(=O)c2cccnc2Sc2ccc(C)c(C)c2)cc(OC)c1OC,15.2%
7,Cc1coc2cc3oc(=O)c(CC(=O)N(C)CC(=O)O)c(C)c3cc12,19%
8,CSc1ccc(C2CC(=O)Nc3nc(SC)[nH]c(=O)c32)cc1 (stereo not shown),17%
9,CC(C)(C)NC(=O)C1CC2CCCCC2CN1 (stereo not shown),10.3%
10,Cn1c2c(c(=O)n(C)c1=O)C(c1ccc(Br)cc1)C(C#N)=C(N)N2 (stereo not shown),11.4%
11,CCOc1ccccc1NC(=O)C1CCCN(S(C)(=O)=O)C1 (stereo not shown),11%
12,Cc1ccc(Cn2c(=O)cc(C(=O)O)c3ccccc32)cc1,-1.26%
13,COc1cc(S(=O)(=O)NCc2ccc(F)cc2)ccc1-n1cnnn1,-7.05%
14,COc1ccc(OC)c(NC(=O)C2=C(C)Nc3ncnn3C2c2cccs2)c1 (stereo not shown),-5.59%
15,Cc1cccc(Nc2nnc(SCc3cc(=O)n4cc(C)ccc4n3)s2)c1,14.3%
16,Cc1ccn2c(=O)c(C(=O)NC3CCCCC3C)c(O)nc2c1 (stereo not shown),12%
17,Cc1cnc(C(=O)OCC(=O)NC(=O)c2ccccc2)cn1,19.7%
18,Cc1cccc(NC(=O)CCNS(=O)(=O)c2cccc3nonc23)c1C,2.23%
19,CC(=O)CC(=O)Nc1ccc(C(N)=O)cc1,7.41%
20,COc1c2c(nc3occc13)C(CC=C(C)C)(OC)C(=O)C=C2 (stereo not shown),-0.178%
21,CCOc1ccccc1N1CCN(S(=O)(=O)c2ccc3c4c(cccc24)C(=O)N3)CC1,7.24%
22,Cc1nnc(NC(=O)c2c(F)c(F)c(F)c(F)c2F)s1,15.5%
23,CC(=O)Oc1ccc(N2C(=O)c3cccc4c([N+](=O)[O-])ccc(c34)C2=O)cc1,17.5%

row,Structure (SMILES),"hERG current change (%, negative = inhibition) at 1uM"
1,COC(=O)C1=CN(Cc2ccc(OC)cc2)C=C(C(=O)OC)C1c1ccsc1,15.1%
2,Cc1nnc(SCC(=O)N2CCN(S(=O)(=O)c3ccccc3)CC2)s1,3.67%
3,CNC(=O)CSc1nc(-c2ccccc2)c(-c2ccccc2)[nH]1,3.72%
4,CCc1nnc(NC(=O)CCC(=O)N2CCN(Cc3cc(F)ccc3OC)CC2)s1,8.26%
5,COc1ccccc1NCC(=O)N1CCN(S(=O)(=O)c2ccccc2)CC1,14%
6,CC(=O)Nc1ccc(N(C(=O)c2ccco2)C(C(=O)NC2CCCC2)c2ccncc2)cc1 (stereo not shown),13.5%
7,O=C1CCCN1c1nccs1,12.5%
8,O=C(Nc1ccc(F)cc1)C1CC(=O)n2cnnc2N1 (stereo not shown),9.45%
9,O=C(O)c1c[nH]c2ccc(S(=O)(=O)N3CCN(c4ccc(F)cc4)CC3)cc2c1=O,-5.04%
10,COc1cc(NC(=O)Cn2nc(Cc3cccnc3)c3ccccc3c2=O)cc(OC)c1OC,9.27%
11,COc1ccc(N2CCN(C(=O)c3ccc4nc(N5CCCCC5)sc4c3)CC2)cc1,9.51%
12,CCN(Cc1ccccc1)Cc1cccc([N+](=O)[O-])c1,3.32%
13,COc1ccc(CN2CC(=O)N(c3ccccc3OC)C2=S)cc1OC,3.69%
14,O=C(Cn1c2ccccc2c2nc3n(c(=O)c21)CCS3)Nc1ccccc1,23.6%
15,CCN(CC)C(=O)CSc1nnc(-c2ccco2)o1,7.92%
16,Cc1ccc(S(=O)(=O)N(C)C)cc1NC(=O)CN1c2cccc3cccc(c23)S1(=O)=O,2.59%
17,COc1ccc(C(=O)Nc2cc(OC)nc(OC)n2)cc1,7.42%
18,O=C(O)C1(c2ccccc2)CCN(S(=O)(=O)c2cccs2)CC1,13.1%
19,C=CCOc1c(CNc2cccc(C(=O)O)c2)cccc1OCC,7.85%
20,O=C(NCC(c1ccco1)N1CCc2ccccc2C1)C(=O)Nc1ccc(F)cc1F (stereo not shown),7.45%
21,CCCN(Cc1ccccc1)C(=O)Nc1ccc2c(c1)nnn2C,6.09%
22,CCOc1ccc(NS(=O)(=O)c2cc(NC(=O)CCS(=O)(=O)c3ccc(C)cc3)ccc2OC)cc1,13.8%

# Reference: article PMC4336329 (PLoS ONE, 2015)
